Data as given in patent US10898579B2, “Conjugates of cysteine engineered antibodies” (priority 2015, dated 2021).

Tested on: cervical carcinoma KB cell line
Test: In vitro cytotoxicity assay, KB cells
Type: cell-based
Experimental: The cell lines were cultured in culture medium as recommended by the cell supplier (ATCC or DSMZ). To each well of a flat bottom 96-well plate was added 1,000-2,000 cells in 100 μL of the culture medium. Conjugates were diluted into the culture medium using 3-fold dilution series and 100 μL were added per well. To determine the contribution of FRα-independent cytotoxicity, cells in some wells were pre-incubated with 2 μM huMOV19 antibody prior to the addition of conjugates (“blocked” or “+B”). Control wells containing cells and the medium but lacking the conjugates, as well as wells containing medium only, were included in each assay plate. Assays were performed in triplicate for each data point. The plates were incubated at 37° C. in a humidified 6% CO2 incubator for 5 to 6 days. Then the relative number of viable cells in each well was determined using either the Alamar Blue reagent according the manufacturer's protocol (Life Technologies) or the WST-8 based Cell Counting Kit-8 (Dojindo Molecular Technologies, Inc., Rockville, Md.). The apparent surviving fraction of cells in each well was calculated by first correcting for the medium background absorbance, and then dividing each value by the average of the values in the control wells (non-treated cells). The surviving fraction of cells was plotted against conjugate concentration in semi-log plots.

B1: huMOV19-C442-D4 (conjugate)
heavy: QVQLVQSGAEVVKPGASVKISCKASGYTFTGYFMNWVKQSPGQSLEWIGRIHPYDGDTFYNQKFQGKATLTVDKSSNTAHMELLSLTSEDFAVYYCTRYDGSRAMDYWGQGTTVTVSS[gap - human IgG1 constant region with changes]
light: DIVLTQSPLSLAVSLGQPAIISCKASQSVSFAGTSLMHWYHQKPGQQPRLLIYRASNLEAGVPDRFSGSGSKTDFTLTISPVEAEDAATYYCQQSREYPYTFGGGTKLEIKRTVAAPSVFIFPPSDEQLKSGTASVVCLLNNFYPREAKVQWKVDNALQSGNSQESVTEQDSKDSTYSLSSTLTLSKADYEKHKVYACEVTHQGLSSPVTKSFNRGEC
activity compared with the lysine-linked conjugate: at least as active as the lysine-linked huMOV19-sulfo-SPDB-D1 conjugate
